Assay results reported in a compilation of properties of binary mixtures (doi:10.1021/ie302343v).
The densities may have been worked out from excess volumes.

Test: xn = mol fraction of the nth substance listed
Settings: 101 kPa

CCCCCC(=O)[O-].C[NH2+]CCO + CCOC(C)=O
Settings	mass density [kg/m3]
288.15 K, x2 = 0	1001.1
288.15 K, x2 = 0.3111	985.8
288.15 K, x2 = 0.5971	963.2
288.15 K, x2 = 0.9017	924.5
288.15 K, x2 = 0.9499	916.5
288.16 K, x2 = 0.0719	997.4
288.16 K, x2 = 0.1039	995.3
288.16 K, x2 = 0.4946	973.1
288.16 K, x2 = 0.7005	952.4
288.16 K, x2 = 0.8031	938.7
293.14 K, x2 = 0.8031	933.5
293.15 K, x2 = 0	997.6
293.15 K, x2 = 0.0719	993.8
293.15 K, x2 = 0.3986	976
293.15 K, x2 = 0.4946	968.8
293.15 K, x2 = 0.7005	947.6
293.15 K, x2 = 0.9017	918.8
298.14 K, x2 = 0.4946	964.6
298.14 K, x2 = 0.8031	928.3
298.15 K, x2 = 0	994.2
298.15 K, x2 = 0.1039	988.1
298.15 K, x2 = 0.1973	985.1
298.15 K, x2 = 0.3111	977.3
298.15 K, x2 = 0.5971	954.5
298.15 K, x2 = 0.7005	942.8
298.15 K, x2 = 0.9017	913.1
298.16 K, x2 = 0.9499	904.7
303.14 K, x2 = 0.0719	986.5
303.14 K, x2 = 0.1039	984.5
303.14 K, x2 = 0.3111	973.3
303.14 K, x2 = 0.4946	960.3
303.14 K, x2 = 0.7005	937.9
303.15 K, x2 = 0	990.7
303.15 K, x2 = 0.1973	981.2
303.15 K, x2 = 0.9017	907.4
303.15 K, x2 = 0.9499	898.8
308.14 K, x2 = 0	987.1
308.14 K, x2 = 0.1039	981
308.14 K, x2 = 0.3111	969.3
308.14 K, x2 = 0.4946	955.9
308.14 K, x2 = 0.5971	945.7
308.14 K, x2 = 0.7005	933
308.15 K, x2 = 0.8031	917.6
308.15 K, x2 = 0.9017	901.6
313.14 K, x2 = 0	983.6
313.14 K, x2 = 0.0719	979.4
313.14 K, x2 = 0.1039	977.4
313.14 K, x2 = 0.1973	972.7
313.14 K, x2 = 0.3111	965.3
313.14 K, x2 = 0.3986	959.6
313.14 K, x2 = 0.4946	951.6
313.14 K, x2 = 0.7005	928
313.15 K, x2 = 0.5971	941.2
313.15 K, x2 = 0.8031	912.3
313.15 K, x2 = 0.9017	895.8
313.16 K, x2 = 0.9499	886.7
318.14 K, x2 = 0.1039	973.9
318.14 K, x2 = 0.1973	968.5
318.14 K, x2 = 0.4946	947.2
318.14 K, x2 = 0.5971	936.8
318.15 K, x2 = 0	980.2
318.15 K, x2 = 0.0719	975.8
318.15 K, x2 = 0.7005	923
323.14 K, x2 = 0.1039	970.2
323.14 K, x2 = 0.5971	932.2
323.15 K, x2 = 0	976.7
323.15 K, x2 = 0.0719	972.2
323.15 K, x2 = 0.3111	957.3
323.15 K, x2 = 0.4946	942.8
323.15 K, x2 = 0.7005	918
323.15 K, x2 = 0.8031	901.5
323.15 K, x2 = 0.9017	884
323.15 K, x2 = 0.9499	874.5
328.14 K, x2 = 0.0719	968.5
328.14 K, x2 = 0.1973	960.7
328.14 K, x2 = 0.4946	938.4
328.15 K, x2 = 0	973.1
328.15 K, x2 = 0.3111	953.3
328.15 K, x2 = 0.3986	947.1
328.15 K, x2 = 0.8031	896
328.15 K, x2 = 0.9017	878
328.16 K, x2 = 0.9499	868.3

CCCCCC(=O)[O-].C[NH2+]CCO + COC(C)=O
Settings	mass density [kg/m3]
288.14 K, x2 = 0.3045	993.8
288.15 K, x2 = 0.0512	999.4
288.15 K, x2 = 0.1336	998.1
288.15 K, x2 = 0.2149	996.3
288.15 K, x2 = 0.403	990.2
288.15 K, x2 = 0.5063	985.6
288.15 K, x2 = 0.5982	980.7
288.15 K, x2 = 0.7999	964.1
288.15 K, x2 = 0.9011	953.1
288.15 K, x2 = 0.9512	946.8
293.14 K, x2 = 0.1336	994.4
293.14 K, x2 = 0.9011	947.2
293.14 K, x2 = 0.9512	940.6
293.15 K, x2 = 0.0512	995.9
293.15 K, x2 = 0.2149	992.6
293.15 K, x2 = 0.3045	990
293.15 K, x2 = 0.403	986.2
293.15 K, x2 = 0.5063	981.3
293.15 K, x2 = 0.5982	976.2
293.15 K, x2 = 0.6976	968.7
293.15 K, x2 = 0.7999	958.7
298.14 K, x2 = 0.1336	990.7
298.14 K, x2 = 0.3045	986.1
298.14 K, x2 = 0.403	982.1
298.14 K, x2 = 0.7999	953.3
298.15 K, x2 = 0.2149	988.9
298.15 K, x2 = 0.5982	971.6
298.15 K, x2 = 0.9011	941.2
298.15 K, x2 = 0.9512	934.4
298.16 K, x2 = 0.0512	992.3
303.14 K, x2 = 0.2149	985.2
303.14 K, x2 = 0.6976	958.9
303.14 K, x2 = 0.7999	947.9
303.15 K, x2 = 0	990.7
303.15 K, x2 = 0.3045	982.3
303.15 K, x2 = 0.403	978.1
303.15 K, x2 = 0.5063	972.7
303.15 K, x2 = 0.5982	967.1
303.15 K, x2 = 0.9011	935.2
308.14 K, x2 = 0	987.1
308.14 K, x2 = 0.6976	953.9
308.14 K, x2 = 0.7999	942.4
308.14 K, x2 = 0.9011	929.1
308.15 K, x2 = 0.0512	985.2
308.15 K, x2 = 0.2149	981.4
308.15 K, x2 = 0.5063	968.3
308.15 K, x2 = 0.5982	962.5
308.16 K, x2 = 0.9512	921.6
308.22 K, x2 = 0.403	973.8
313.14 K, x2 = 0	983.6
313.14 K, x2 = 0.0512	981.7
313.14 K, x2 = 0.5982	957.8
313.14 K, x2 = 0.6976	948.9
313.14 K, x2 = 0.7999	936.9
313.15 K, x2 = 0.1336	979.8
313.15 K, x2 = 0.2149	977.7
313.15 K, x2 = 0.3045	974.5
313.15 K, x2 = 0.5063	963.9
313.15 K, x2 = 0.9011	923
313.15 K, x2 = 0.9512	915.2
318.14 K, x2 = 0.7999	931.3
318.15 K, x2 = 0	980.2
318.15 K, x2 = 0.3045	970.5
318.15 K, x2 = 0.5063	959.5
318.15 K, x2 = 0.9011	916.8
318.15 K, x2 = 0.9512	908.7
318.16 K, x2 = 0.0512	978.1
318.16 K, x2 = 0.1336	976.1
318.16 K, x2 = 0.2149	973.9
323.14 K, x2 = 0.5982	948.5
323.14 K, x2 = 0.7999	925.7
323.14 K, x2 = 0.9011	910.6
323.15 K, x2 = 0	976.7
323.15 K, x2 = 0.0512	974.5
323.15 K, x2 = 0.1336	972.3
323.15 K, x2 = 0.2149	970.1
323.15 K, x2 = 0.403	961.6
323.15 K, x2 = 0.5063	955.1
323.15 K, x2 = 0.9512	902.2
328.14 K, x2 = 0.1336	968.5
328.15 K, x2 = 0	973.1
328.15 K, x2 = 0.3045	962.6
328.15 K, x2 = 0.5063	950.7
328.15 K, x2 = 0.5982	943.9
328.15 K, x2 = 0.6976	933.8
328.15 K, x2 = 0.7999	920.1
328.15 K, x2 = 0.9011	904.3
